# Source: the supplement of paper PMC10126150
# Sequences with one replicate were seen in a single cluster, so their values are uncertain.
# Test system: ATP
# Assay: switch fluorescence ratio, 500 uM ATP over buffer (Cy3 cluster intensity, sum of 5 cycles each) (fold (ratio)); higher = stronger signal-on switching upon ATP binding; sequences stand for … in TCGTCGGCAGCGTCAGATGTGTATAAGAGACAGTTTTTTTTTTTTTTTTTTTTTTTTT…TC
# Conditions: aptamer strand: ATP DNA aptamer (quencher-CACCTGGGGGAGTATTGCGGAGGAAGG + anchor), 100 nM annealed; ATP concentration: 500 uM; one replicate
# Summary of the method: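 Per cluster, summed Cy3 intensity from the target cycles was divided by that from the buffer cycles to give the fluorescence ratio, then averaged per switch-domain sequence. Clusters outside 100-1000 RFU were excluded. The Cy3-labelled switching-strand clusters, on a modified Illumina MiSeq flow-cell, were annealed to 100 nM quencher-labelled ATP aptamer and imaged in selection buffer, then after 15 min with 500 uM ATP at 22 °C, for five cycles with NaOH stripping and re-annealing between them.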
# 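Also: ATP exposure 15 min at 22 °C before imaging.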
row,Sequence,switch fluorescence ratio
1,GATGTTTCTT,1
2,CGGGCTGATC,0.984
3,CTCATCTGCT,1.04
4,TCGCGCGGG,0.964
5,ATGCCGCAGC,1.14
6,CATTTAGCCC,1.01
7,TATTTTCTCT,0.994
8,AATGTGTTAC,1.05
9,TGTAGGGCAG,0.971
10,TTATCCTATA,0.95
11,TTACGTTCCC,1.72
12,CATTCATTTG,1.01
13,GAGGTTGCG,0.975
14,CGTGCGCTAA,2.83
15,TTATGATTAA,0.956
16,GAAAACTGT,0.983
17,GGGCTATGTT,1
18,GCTATCGGCA,1.02
19,ATTATTTGGG,1.01
20,TACCCACCGT,1.36
21,ACCAAGATTC,1.11
22,ATCAAGATGG,0.985
23,CTTTATCGT,1.01

row,Sequence,switch fluorescence ratio
1,AGAGTGGTAA,1.02
2,CGTCAAAAGG,0.984
3,AGTTGCCCG,0.999
4,TGGTTCTACA,1.05
5,CCCTTTATTA,0.995
6,TTTAACACAT,0.981
7,TGCACCATAT,1.08
8,TAACGATGCT,1.01
9,CTTATCCGAT,1.01
10,CACTCAGCTT,1.24
11,ACGCCGAAGA,1.06
12,CGCCCCCGGG,2.45
13,AAGGCAAACG,0.973
14,AGGCGGCATT,0.975
15,CTCACTCATG,1.02
16,TAGCCATACG,1.35
17,TTTTTCCCAC,1.13
18,CTCCCCTCTG,1.82
19,GAGATCAACC,0.981
20,ATCTAGGATT,1
21,GCTATCGTCT,1.01
22,TTAGACGACC,1.17
23,ATCTTAGACT,0.974

row,Sequence,switch fluorescence ratio
1,ACGTTGCTAT,1
2,GTTTCTACAT,0.97
3,CAGGATCTGC,0.982
4,ATTGTTAAC,0.996
5,ATCGGACTTT,1.04
6,CTATGTGCGG,1.01
7,TACGGTAGAC,1.15
8,TCGCGCGGGA,1.04
9,AATAAGTCGG,1
10,AAAGGGGCAT,1.03
11,GAATGGCAGC,1.02
12,GGCGATGTAC,1.15
13,TCAGTATAC,1.12
14,TTCGAAACCT,3.52
15,GGAAGGCCGT,0.999
16,AGGTGAGGTG,0.971
17,TCAGACTTCT,1.03
18,ATATACAACT,1.07
19,TGTCCCAAAT,0.994
20,TAAGTGTCAC,0.971
21,GACGGCTCGG,0.986
22,TATTCAAGAT,1.01
23,ACGCTGGTAC,2.32

row,Sequence,switch fluorescence ratio
1,CGATGCGCGG,0.965
2,AATCGTGAAG,0.949
3,TCCAGGAAAG,0.999
4,ATTATTCGTA,0.995
5,ATTTTTGTG,0.987
6,CCTTGTTCGA,0.988
7,ATAAGGGTCG,0.98
8,GCTCCGCGGG,5.35
9,TCATTCTTAC,1.06
10,TTGTGCGGT,1
11,TCGCGGCGC,0.975
12,TTGAACCAGG,1.29
13,AGGAGTATAG,0.987
14,ATTTAAGGAT,1.04
15,GCTAGTTTAT,1.02
16,GGACGTAGAT,1.01
17,AATTTGATTT,1
18,ACAGTCT,1.01
19,CTTTTGCTTG,0.988
20,AAGTAGCAAA,1.25
21,CATGGGGACG,1.01
22,CAGTTTTTGC,0.992
23,TAGCTGATCC,1.07

row,Sequence,switch fluorescence ratio
1,GTGAGGGGTC,0.977
2,TGGAGGCAGG,1.1
3,TGGATGGTCA,0.968
4,ACCCCTCTCA,1.06
5,AAAAATAGGA,0.969
6,ACGTCAGGG,1.08
7,CGCATTGAAC,3.31
8,TGACGGGAGA,1.04
9,TTCGTTGCCA,1.17
10,ATCCGTCCCT,1.03
11,TCAGACTTAA,1.07
12,TTTAATCAGT,1.01
13,AAGAGTCAGT,0.971
14,AATCCTAGGG,0.952
15,AGACGCAAAT,3.01
16,GAAAGGTCTT,1.08
17,GAAGAAGTGA,0.986
18,TCAAATGGAC,1.09
19,TATGGGACAG,0.954
20,AACGGCTTGT,0.986
21,ACCGAGACCC,1.08
22,TTCACTTGTT,1.04
23,CCCCGTGGAT,1.28

row,Sequence,switch fluorescence ratio
1,AAAAACCCGG,1.02
2,GTTTCAGCGT,1.02
3,ATTCTACATA,1.03
4,TGCGTACCTC,1.12
5,TTTGCTCACC,1.01
6,CTCTTCCCAA,2.43
7,CTCTGGTTGC,1.16
8,TGATCCGTTC,1.04
9,TAATCTCTAT,1.04
10,CTACCTAGCC,1.23
11,GTGGTCCTT,0.97
12,ATTTATCGTG,0.98
13,CCCAGTGCGG,1.13
14,TGGAGAGCTT,1.02
15,AACCAGCTAC,2.03
16,TTCATGGAGA,0.973
17,GTTTGTTAAG,1.02
18,AAGAAGGCGC,1.01
19,CGTCATCGG,1.09
20,TGTTATCGAG,0.983
21,CACTCTGACG,1.07
22,ACTGAAAGGT,0.993
23,GCCAGACGTC,0.997

row,Sequence,switch fluorescence ratio
1,TGCAGGAGTA,0.931
2,ACGCAACGCT,1.45
3,TAGCCTGG,0.972
4,ATGCAGCGC,0.965
5,GCCGGACCCT,1.07
6,TTTAGCCCAA,1.03
7,TGGCTGATGG,0.98
8,TTCTTTAAA,0.973
9,TATTGCCCGA,0.976
10,TCTGAATTAG,1.06
11,TTAAGTTCCC,0.996
12,AAAGCGGGAT,0.996
13,GTGTCGTTGA,1.01
14,GGCGTATTTT,0.977
15,AGGTAGGCAG,0.941
16,TCATAGTTAG,0.989
17,ATCAGCTGGT,0.99
18,TCGCAACCTA,1.51
19,CGTCGTCCAG,1.01
